Measurements reported in the supplement of paper PMC12015411.
Bacterial growth in Mueller-Hinton broth at 37 °C with the drug at the dose given, alone or with nitroxoline. Checkerboards on E. coli BW25113: OD600 at the end of exponential growth as a fraction of no-drug wells. Colistin series: OD595 at 10.75 h as a fraction of the colistin-free well. 1 = full growth, lower = more inhibition. No active / inactive call per well. Checkerboard doses stop near each drug's IC75, and their values pile up at 1, as if capped there. Colistin and gentamicin are mixtures; one drawing stands for each.

System: Escherichia coli BW25113
Assay: growth relative to no-drug wells (fraction of no-drug control); higher = more growth, less inhibition
Description: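 8 x 8 checkerboard in cation-adjusted Mueller-Hinton broth at 37 °C; OD600 at the end of exponential growth as a fraction of no-drug wells, two biological replicates.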

CC[C@H]1OC(=O)[C@H](C)[C@@H](O[C@H]2C[C@@](C)(OC)[C@@H](O)[C@H](C)O2)[C@H](C)[C@@H](O[C@@H]2O[C@H](C)C[C@H](N(C)C)[C@H]2O)[C@](C)(O)C[C@@H](C)C(=O)[C@H](C)[C@@H](O)[C@]1(C)O [Erythromycin] + Oc1ccc([N+](=O)[O-])c2cccnc12 [nitroxoline]
growth
Conditions | nitroxoline concentration 0.136 µg/ml | nitroxoline concentration 0.255 µg/ml | nitroxoline concentration 0.374 µg/ml | nitroxoline concentration 0.493 µg/ml | nitroxoline concentration 0.612 µg/ml | nitroxoline concentration 0.731 µg/ml | nitroxoline concentration 0.85 µg/ml
1.1176 µg/ml | 0.685 | 0.6253 | 0.561 | 0.56 | 0.431 | 0.263 | 0.24
2.098 µg/ml | 0.642 | 0.629 | 0.504 | 0.386 | 0.491 | 0.247 | 0.245
3.0784 µg/ml | 0.584 | 0.547 | 0.432 | 0.398 | 0.32 | 0.2708 | 0.234
4.0588 µg/ml | 0.624 | 0.483 | 0.435 | 0.349 | 0.235 | 0.253 | 0.227
5.0392 µg/ml | 0.59 | 0.526 | 0.395 | 0.276 | 0.248 | 0.216 | 0.209
6.0196 µg/ml | 0.622 | 0.524 | 0.384 | 0.246 | 0.203 | 0.161 | 0.184
7 µg/ml | 0.615 | 0.48 | 0.314 | 0.253 | 0.227 | 0.194 | 0.215

C[C@@H]1O[C@@H]1P(=O)(O)O [Fosfomycin]
nitroxoline concentration 0 µg/ml
Conditions | growth
0.0625 µg/ml | 0.989
0.1075 µg/ml | 0.897
0.125 µg/ml | 0.82
0.215 µg/ml | 0.596
0.25 µg/ml | 0.0133
0.43 µg/ml | 0.0838
0.5 µg/ml | 0.0572

C[C@@H]1O[C@@H]1P(=O)(O)O [Fosfomycin] + Oc1ccc([N+](=O)[O-])c2cccnc12 [nitroxoline]
growth
Conditions | nitroxoline concentration 0.136 µg/ml | nitroxoline concentration 0.255 µg/ml | nitroxoline concentration 0.374 µg/ml | nitroxoline concentration 0.493 µg/ml | nitroxoline concentration 0.612 µg/ml | nitroxoline concentration 0.731 µg/ml | nitroxoline concentration 1.1 µg/ml
0.0625 µg/ml | 0.957 | 0.877 | 0.822 | 0.574 | 0.535 | 0.222 | 0.125
0.1075 µg/ml | 0.857 | 0.852 | 0.87 | 0.618 | 0.522 | 0.271 | 0.158
0.125 µg/ml | 0.7834 | 0.754 | 0.82 | 0.587 | 0.531 | 0.274 | 0.18
0.215 µg/ml | 0.6 | 0.587 | 0.56 | 0.44 | 0.327 | 0.16 | 0.124
0.25 µg/ml | 0.0125 | 0.0108 | 0.02 | 0.02 | 0.02 | 0.0167 | 0.0133
0.43 µg/ml | 0.0423 | 0.043 | 0.0404 | 0.0418 | 0.0395 | 0.0332 | 0.029
0.5 µg/ml | 0.0393 | 0.0409 | 0.0453 | 0.0402 | 0.0394 | 0.0315 | 0.0367

CNC(C)C1CCC(N)C(OC2C(N)CC(N)C(OC3OCC(C)(O)C(NC)C3O)C2O)O1 (configuration not stated) [Gentamicin]
nitroxoline concentration 0 µg/ml
Conditions | growth
0.035 µg/ml | 0.957
0.06 µg/ml | 0.899
0.07 µg/ml | 0.895
0.12 µg/ml | 0.562
0.14 µg/ml | 0.417
0.24 µg/ml | 0.0487
0.28 µg/ml | 0.0373

CNC(C)C1CCC(N)C(OC2C(N)CC(N)C(OC3OCC(C)(O)C(NC)C3O)C2O)O1 (configuration not stated) [Gentamicin] + Oc1ccc([N+](=O)[O-])c2cccnc12 [nitroxoline]
growth
Conditions | nitroxoline concentration 0.136 µg/ml | nitroxoline concentration 0.255 µg/ml | nitroxoline concentration 0.374 µg/ml | nitroxoline concentration 0.493 µg/ml | nitroxoline concentration 0.612 µg/ml | nitroxoline concentration 0.731 µg/ml | nitroxoline concentration 0.85 µg/ml
0.035 µg/ml | 1 | 0.915 | 0.834 | 0.707 | 0.619 | 0.511 | 0.477
0.06 µg/ml | 0.926 | 0.889 | 0.768 | 0.685 | 0.599 | 0.51 | 0.471
0.07 µg/ml | 0.928 | 0.851 | 0.767 | 0.672 | 0.558 | 0.495 | 0.502
0.12 µg/ml | 0.858 | 0.79 | 0.658 | 0.61 | 0.587 | 0.503 | 0.502
0.14 µg/ml | 0.754 | 0.797 | 0.628 | 0.584 | 0.548 | 0.475 | 0.468
0.24 µg/ml | 0.339 | 0.465 | 0.346 | 0.37 | 0.403 | 0.255 | 0.312
0.28 µg/ml | 0.0287 | 0.349 | 0.387 | 0.452 | 0.408 | 0.32 | 0.265

C[C@@H](O)[C@H]1C(=O)N2C(C(=O)O)=C(SCCNC=N)C[C@H]12 [Imipenem]
nitroxoline concentration 0 µg/ml
Conditions | growth
0.025 µg/ml | 0.77
0.043 µg/ml | 0.741
0.05 µg/ml | 0.827
0.086 µg/ml | 0.629
0.1 µg/ml | 0.491
0.172 µg/ml | 0.172
0.2 µg/ml | 0.181

C[C@@H](O)[C@H]1C(=O)N2C(C(=O)O)=C(SCCNC=N)C[C@H]12 [Imipenem] + Oc1ccc([N+](=O)[O-])c2cccnc12 [nitroxoline]
growth
Conditions | nitroxoline concentration 0.136 µg/ml | nitroxoline concentration 0.255 µg/ml | nitroxoline concentration 0.374 µg/ml | nitroxoline concentration 0.493 µg/ml | nitroxoline concentration 0.612 µg/ml | nitroxoline concentration 0.731 µg/ml | nitroxoline concentration 0.85 µg/ml
0.025 µg/ml | 1 | 0.925 | 0.812 | 0.651 | 0.563 | 0.527 | 0.48
0.043 µg/ml | 0.868 | 0.8531 | 0.771 | 0.642 | 0.541 | 0.52 | 0.5198
0.05 µg/ml | 0.777 | 0.806 | 0.7868 | 0.674 | 0.542 | 0.525 | 0.505
0.086 µg/ml | 0.569 | 0.662 | 0.689 | 0.648 | 0.595 | 0.502 | 0.511
0.1 µg/ml | 0.444 | 0.632 | 0.691 | 0.631 | 0.604 | 0.535 | 0.473
0.172 µg/ml | 0.219 | 0.334 | 0.439 | 0.4375 | 0.403 | 0.39 | 0.383
0.2 µg/ml | 0.228 | 0.203 | 0.322 | 0.329 | 0.36 | 0.305 | 0.316
